{"source": "PubChem BioAssay AID485344", "about": "(National Center for Advancing Translational Sciences (NCATS), 2010)", "note": "Out of some 340,000 compounds screened, about 6,900 (2%) were called active. Cut-off read from the data, not from the text of the source: active = inhibition above about 30%; inactive = below that, where a call was filed. Only a part is listed here, and it is no random draw. Where no call is shown, the source filed none."}
{"target": "D(2) dopamine receptor (Homo sapiens) (UniProt P14416)", "sequence (P14416 whole entry, looked up)": "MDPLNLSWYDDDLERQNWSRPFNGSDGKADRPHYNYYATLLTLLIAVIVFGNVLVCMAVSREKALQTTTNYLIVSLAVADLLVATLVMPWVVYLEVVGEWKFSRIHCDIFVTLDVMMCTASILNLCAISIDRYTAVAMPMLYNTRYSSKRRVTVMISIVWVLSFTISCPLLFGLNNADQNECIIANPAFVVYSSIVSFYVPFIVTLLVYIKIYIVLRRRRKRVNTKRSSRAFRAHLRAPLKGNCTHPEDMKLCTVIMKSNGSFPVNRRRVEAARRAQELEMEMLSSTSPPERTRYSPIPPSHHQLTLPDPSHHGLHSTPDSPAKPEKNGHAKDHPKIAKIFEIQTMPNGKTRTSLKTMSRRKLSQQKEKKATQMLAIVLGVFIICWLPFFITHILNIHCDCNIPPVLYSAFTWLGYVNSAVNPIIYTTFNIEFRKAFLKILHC", "test": "HTS Assay for Allosteric Antagonists of the Human D2 Dopamine Receptor: Primary Screen for Antagonists; note: 0% is about no effect", "conditions": "HEK293 TREx D2 cells, calcium flux, dopamine EC80; at 10 µM; stronger effect = higher value", "procedure,_shortened": "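Measurement of antagonist activity uses fluorescent calcium dye in inducible HEK293 T-REx D2 cells: 10 s baseline, compound addition with 180 s read, EC80 dopamine addition with a further 180 s read.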"}
{"compound": "O=C(CSc1n[nH]c(-c2ccc(S(=O)(=O)N3CCCCC3)cc2)n1)Nc1nccs1", "inhibition": "active: 39.2%"}
{"compound": "COc1ccc(-c2ccc(NS(=O)(=O)c3ccccc3Cl)cc2)nn1", "inhibition": "-9.3%"}
{"compound": "COc1ccc(Cn2c(CCC(=O)Nc3cccc(Cl)c3)nc3cccnc32)cc1", "inhibition": "15.5%"}
{"compound": "Cc1nc(N2CCOCC2)c2c(C(=O)N3CCN(c4ccc(Cl)cc4)CC3)c(C)oc2n1", "inhibition": "-4.79%"}
{"compound": "O=C(Cn1c(=O)oc2cc(S(=O)(=O)N3CCCC3)ccc21)Nc1ccc(OC(F)(F)F)cc1", "inhibition": "-4.5%"}
{"compound": "Cc1ccc(NC(=O)C2CCC(CNS(=O)(=O)c3cccc4nsnc34)CC2)c(C)c1", "note": "(stereo not given)", "inhibition": "1.52%"}
{"compound": "Cc1ccc(C)c(Cn2c(C(C)NC(=O)c3ccccc3)nc3ccccc32)c1", "note": "(stereo not given)", "inhibition": "1.63%"}
{"compound": "Cc1nc2ccc(S(=O)(=O)N(CC(=O)Nc3cccc(C)c3C)Cc3ccccc3)cc2s1", "inhibition": "3.72%"}
{"compound": "COc1cccc(OCc2nc3ccccc3n2C)c1", "inhibition": "-6.53%"}
{"compound": "O=C(CCn1cnc2onc(-c3ccc(F)cc3)c2c1=O)N1CCN(c2ccccc2)CC1", "inhibition": "-14.8%"}
{"compound": "O=C(NCc1noc2ccccc12)N1CCN(c2ccccc2F)CC1", "inhibition": "-9.35%"}
{"compound": "O=C(CSC1=Nc2ccccc2C2=NC(Cc3ccccc3)C(=O)N12)Nc1ccccc1", "note": "(stereo not given)", "inhibition": "11.1%"}
{"compound": "O=C(NNC1=Nc2ccccc2SC1)c1cccc([N+](=O)[O-])c1", "inhibition": "active: 70.7%"}
{"compound": "COc1ccc(NC(=O)CCN2C(=O)c3ccncc3C2=O)cc1OC", "inhibition": "active: 33.9%"}
{"compound": "O=C(Nc1cccc(-c2nc3cc(Cl)ccc3o2)c1)c1ccc(F)cc1", "inhibition": "-3.65%"}
{"compound": "Cc1nn(Cc2ccc(Cl)cc2)c2sc(C(=O)O)cc12", "inhibition": "active: 31.6%"}
{"compound": "O=C(Cn1c(=O)n(Cc2ccc(F)cc2)c(=O)c2sc3ccccc3c21)NCc1ccccc1", "inhibition": "-6.12%"}
{"compound": "Cc1ccc(OCCSc2nc3ccccc3n2CC(=O)N2CCCCC2)c(C)c1", "inhibition": "-8.89%"}
{"compound": "CCCS(=O)(=O)N1CC(=O)N(c2ccccc2C)C(C)(C(=O)NC2CCCCC2)C1", "note": "(stereo not given)", "inhibition": "-7.23%"}
{"compound": "CC(C)OCCCn1c(=O)c2ccccc2n2c(-c3ccc(F)c(F)c3)nnc12", "inhibition": "8.39%"}
{"compound": "Cc1ccc(S(=O)(=O)c2nnn3c2nc(NCc2ccc(F)cc2)c2sccc23)cc1C", "inhibition": "-3.48%"}
{"compound": "CCC1CN(C(=O)N2CCC(C(=O)NCc3ccc(C)o3)CC2)c2ccccc2O1", "note": "(stereo not given)", "inhibition": "-1.68%"}
{"compound": "Cc1nn(-c2ccc(N3CCCC3)nn2)c(C)c1CCC(=O)NCc1ccc(F)cc1", "inhibition": "15.1%"}
{"compound": "COc1ccc(Nc2cc(C(=O)NCc3ccccc3)c3ccccc3n2)cc1", "inhibition": "1.08%"}
{"compound": "CCc1ccc(OCC(=O)Nc2ccc(Cl)c(-c3nc4cc(C)cc(C)c4o3)c2)cc1", "inhibition": "13.5%"}
{"compound": "Cc1ccc(Cl)cc1N1CCN(S(=O)(=O)c2ccc3oc(=O)c4ncn(C)c4c3c2)CC1", "inhibition": "11.9%"}
{"compound": "Cc1ccccc1Cn1cc(NC(=O)c2cc(-c3ccc(Cl)cc3)on2)cn1", "inhibition": "-4.32%"}
{"compound": "Cc1[nH]c2ccc(C(=O)NCCc3ccccc3Cl)cc2c1C", "inhibition": "6.91%"}
{"compound": "Cc1cccc(NC(=O)CN2C(=O)COc3ccc(S(=O)(=O)Nc4ccccc4)cc32)c1C", "inhibition": "-2.83%"}
{"compound": "CN(C(=O)CN1CCN(c2cnn(-c3ccccc3)c(=O)c2Cl)CC1)C1CCS(=O)(=O)C1", "note": "(stereo not given)", "inhibition": "active: 33.2%"}
{"compound": "CCOc1cccc(C2c3c(oc4ccc(F)cc4c3=O)C(=O)N2CCOC)c1", "note": "(stereo not given)", "inhibition": "-8.37%"}
{"compound": "CCCNC(=O)C1CCC(Cn2c(=O)c3sccc3n(CC(=O)N3CCCC(C)C3)c2=O)CC1", "note": "(stereo not given)", "inhibition": "-16.5%"}
{"compound": "CC(=O)C1=C(c2ccc(C)cc2)N(C(C)=O)n2c(nnc2-c2ccccc2)S1", "inhibition": "-3.66%"}
{"compound": "COc1ccc(S(=O)(=O)NCC(c2ccc(N(C)C)cc2)N2CCCC2)cc1F", "note": "(stereo not given)", "inhibition": "-15.7%"}
{"compound": "CCOC(=O)N1CCN(CCC(=O)Nc2ccc(OC)cc2OC)CC1", "inhibition": "active: 36.4%"}
{"compound": "Cc1cc2c(cc1S(=O)(=O)N1CCC(C(N)=O)CC1)OCC(=O)N2", "inhibition": "-22.4%"}
{"compound": "Cc1ccc(Nc2c(-c3ccc(N4CCOCC4)cc3)nc3ccc(Cl)cn23)cc1", "inhibition": "-12.6%"}
{"compound": "CCOc1ccc(C2c3c(oc4ccccc4c3=O)C(=O)N2Cc2ccc3c(c2)OCO3)cc1", "note": "(stereo not given)", "inhibition": "-1.67%"}
{"compound": "Cc1cccc(-c2nnn3c2nc(NCCC(C)C)c2ccccc23)c1", "inhibition": "-14.9%"}
{"compound": "Cc1cc(C)c(NC(=O)Cn2nnc(-c3nc(-c4ccncc4)no3)c2N)c(C)c1", "inhibition": "1.52%"}
{"compound": "CC(=O)c1ccc(NC(=O)/C=C/c2ccc(C)o2)cc1", "inhibition": "-11.5%"}
{"compound": "CCOC(=O)c1cccc(NC(=O)C2(S(=O)(=O)c3ccc(C)cc3)CC2)c1", "inhibition": "24.1%"}
{"compound": "O=C(CSc1nc2c([nH]c3ccccc32)c(=O)n1-c1cccc(C(F)(F)F)c1)N1CCCC1", "inhibition": "0.0747%"}
{"compound": "COc1cccc(C(=O)Nc2ccc(-c3nc4ccc(C)cc4s3)cc2)c1OC", "inhibition": "15.7%"}
{"compound": "COc1cn(CC(=O)Nc2ccc(C)cc2C)c(CN2CCCCC2)cc1=O", "inhibition": "6.36%"}
{"compound": "Cc1ccc(N2CCN(c3nc4ccccc4n4nnnc34)CC2)c(C)c1", "inhibition": "4.41%"}
{"compound": "COc1cccc(C(=O)Nc2ccccc2SCc2cc(=O)c3cccc(C)c3[nH]2)c1", "inhibition": "-21.8%"}
{"compound": "Cc1cc(C)cc(NC(=O)c2cc(S(=O)(=O)N3CCOCC3)cn2C)c1", "inhibition": "25.8%"}
{"compound": "Cc1ccc(Cl)cc1N1CCN(C(=O)c2cnn(-c3ccc(Cl)cc3)c2C2CCNCC2)CC1", "inhibition": "-2.77%"}
{"compound": "COc1ccc(C(CNC(=O)c2ccc(NS(=O)(=O)c3ccc4c(c3)OCCO4)cc2)N(C)C)cc1", "note": "(stereo not given)", "inhibition": "active: 31%"}
{"compound": "CCC1(NC(C)=O)CC2CC1CC2NC(C)=O", "note": "(stereo not given)", "inhibition": "active: 38.5%"}
{"compound": "O=C(O)c1cccc(NC(=O)c2cccc(S(=O)(=O)Nc3cccc(F)c3)c2)c1", "inhibition": "-2%"}
{"compound": "O=S(=O)(Nc1ccc(-c2ccc(N3CCCC3)nn2)cc1)c1ccccc1Cl", "inhibition": "-6.76%"}
{"compound": "COc1ccc(NC(=O)CSc2nc3ccccc3n2CC(=O)Nc2cccc(C)c2C)cc1", "inhibition": "0.181%"}
{"compound": "CCOc1ccccc1NC(=O)C(C)n1nnc2sc3c(c2c1=O)CCCC3", "note": "(stereo not given)", "inhibition": "-14.2%"}
{"compound": "COc1cc(OC)c(NC(=O)Nc2sc3nc4n(c(=O)c3c2C)CCC(C)CC4)cc1Cl", "note": "(stereo not given)", "inhibition": "7.82%"}
{"compound": "Cc1ccc(-n2c(SCC(N)=O)nc3c(oc4ccccc43)c2=O)cc1", "inhibition": "3.49%"}
{"compound": "Cc1ccc(CCNC(=O)c2ccc(Cn3c(=O)c4cccn4c4cccnc43)cc2)cc1", "inhibition": "-23%"}
{"compound": "O=C(COc1cccc(Cl)c1)N1CCC(c2nc3ccccc3s2)CC1", "inhibition": "15.5%"}
{"compound": "Cc1ccc(NC(=O)C2CCN(c3ncccn3)CC2)cc1F", "inhibition": "10.1%"}
{"compound": "COc1ccccc1OCCn1c(NC(=O)c2ccccc2)nc2ccccc21", "inhibition": "-24.8%"}
{"compound": "CCN(CC)C(=O)c1sc2c(c1C)c(=O)n(-c1ccc(C)c(C)c1)c(=O)n2Cc1cccc(Cl)c1", "inhibition": "-2.81%"}
{"compound": "CCC(Sc1nc2cc3c(cc2c(=O)n1CCCC(=O)NCc1ccc(OC)cc1)OCO3)C(=O)NCCCOC", "note": "(stereo not given)", "inhibition": "15.2%"}
{"compound": "Cc1ccc(OCC(=O)Nc2ccc3nc(SCC(=O)N4CCOCC4)sc3c2)cc1C", "inhibition": "9.63%"}
{"compound": "Cc1ccc2cccc(NC(=O)c3ccc(C#N)cc3F)c2n1", "inhibition": "2.62%"}
{"compound": "COc1ccc(/C=C/C(=O)Nc2ccccc2)cc1OC", "inhibition": "active: 30.2%"}
{"compound": "Cc1ccccc1NC(=O)Cn1c(=O)n(CCC(=O)NCc2ccc3c(c2)OCO3)c(=O)c2sccc21", "inhibition": "-12.7%"}
{"compound": "CC(=O)N1CCc2cc(CNS(=O)(=O)c3ccc(C(C)(C)C)cc3)ccc21", "inhibition": "-6.12%"}
{"compound": "O=C1CN(C(=O)c2ccc(S(=O)(=O)N3CCCCC3)cc2)C(c2ccc(F)cc2)c2cc(Br)ccc2N1", "note": "(stereo not given)", "inhibition": "15.5%"}
{"compound": "c1ccc(-c2ccccc2OCCOCCN2CCCCC2)cc1", "inhibition": "active: 87.1%"}
{"compound": "O=C(CN1CCN(c2cccc(Cl)c2)CC1)Nc1ccc(S(=O)(=O)N2CCOCC2)cc1", "inhibition": "active: 30.5%"}
{"compound": "CCC12CN3CC(C)(CN(C1)C3c1c[nH]c3ccc(OC)cc13)C2=O", "note": "(stereo not given)", "inhibition": "-12%"}
{"compound": "COC(=O)c1ccc(Oc2nc3c(c(=O)n(C)c(=O)n3C)n2C(C)C)cc1", "inhibition": "0.441%"}
{"compound": "O=C(COc1ccccc1[N+](=O)[O-])Nc1cc(-c2nc3cc(Cl)ccc3o2)ccc1Cl", "inhibition": "1.51%"}
{"compound": "CCc1ccccc1N(C)C(=O)c1nn(C)c2c1CSc1ccccc1-2", "inhibition": "-15.6%"}
{"compound": "Cc1ccc2nc(N3CCC(C(=O)NCc4ccc(F)cc4)CC3)[nH]c2c1", "inhibition": "1.48%"}
{"compound": "CCCCNC(=O)CSc1nc2cc3c(cc2c(=O)n1CCCCCC(=O)NCCc1ccc(OC)c(OC)c1)OCO3", "inhibition": "13.3%"}
{"compound": "Cc1ccc2nc(COc3cccc(NC(=O)c4cccc(Cl)c4)c3)cc(=O)n2c1", "inhibition": "-4.7%"}
{"compound": "Cc1cc(C)c(S(=O)(=O)NCc2csc(-c3ccccc3)n2)c(C)c1", "inhibition": "7.76%"}
{"compound": "CCn1ccc2cc(S(=O)(=O)N3CCCN(C(=O)NCC(=O)OC)CC3)ccc21", "inhibition": "-16.4%"}
{"compound": "c1ccc(CCCN2CCN(c3ccccc3)CC2)cc1", "inhibition": "active: 78.9%"}
{"compound": "Cc1ccccc1C(=O)NC1(C(F)(F)F)N=C(c2ccccc2)N(Cc2ccccc2)C1=O", "note": "(stereo not given)", "inhibition": "3.4%"}
{"compound": "COc1cccc(-c2cc(C(F)(F)F)n3nc(C)c(-c4ccccc4)c3n2)c1", "inhibition": "5.98%"}
{"compound": "COc1ccc(Cn2ccc3nc(C)c(C(=O)N4CCN(c5ccccc5F)CC4)cc3c2=O)cc1", "inhibition": "-6.85%"}
{"compound": "Cc1ccc(NC(=O)Cn2cc3c(n2)CCC(C)C3)cc1C", "note": "(stereo not given)", "inhibition": "11%"}
{"compound": "CC(C(=O)N(C)Cc1ccccc1)N1CCN(C/C=C/c2ccccc2)CC1", "note": "(stereo not given)", "inhibition": "active: 68.7%"}
{"compound": "CCCCCC(=O)N(c1ccc(OCC)cc1)S(=O)(=O)c1ccc2c(c1)n(C)c(=O)n2C", "inhibition": "24%"}
{"compound": "Cc1ccc(CCNC(=O)c2ccc(CS(=O)(=O)Cc3cccc(C)c3)o2)cc1", "inhibition": "9.83%"}
{"compound": "CCOC(=O)C1CCN(C(=O)c2ccc3c(c2)sc2nc(-c4ccc(C)cc4)cn23)CC1", "inhibition": "-14.6%"}
{"compound": "Cc1cccc(OCC(=O)Nc2ccc3oc(-c4ccccc4F)nc3c2)c1", "inhibition": "14.7%"}
{"compound": "COC(=O)c1cc2sc(C)cc2n1CC(=O)Nc1cccc(SC)c1", "inhibition": "-25.9%"}
{"compound": "COc1ccc(-c2nc3cc(C(C)C)ccc3o2)cc1NC(=O)c1ccc(C)c(Cl)c1", "inhibition": "-9.77%"}
{"compound": "CCc1ccc(NC(=O)C2CCN(S(=O)(=O)c3c(C)noc3/C=C/c3ccco3)CC2)cc1", "inhibition": "-4.86%"}
{"compound": "FC(F)(F)c1ccc(-c2noc(-c3ccccc3Br)n2)cc1", "inhibition": "11.1%"}
{"compound": "Cc1[nH]c2ccccc2c1CN1CCN(c2ccccn2)CC1", "inhibition": "active: 55.8%"}
